About 14,000 (4.5%) of roughly 310,000 compounds showed an effect of 50% or more. The effect is printed as a negative number. This is one part of the list.
target: human ether-à-go-go-related gene (hERG) potassium channel (human, UniProt Q12809); assay: primary screen, population patch clamp on CHO cells stably expressing hERG
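Also: peak tail current of the secondary pulse compared with the same well before compound.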

human ether-à-go-go-related gene (hERG) potassium channel, sequence (Q12809 whole entry, looked up): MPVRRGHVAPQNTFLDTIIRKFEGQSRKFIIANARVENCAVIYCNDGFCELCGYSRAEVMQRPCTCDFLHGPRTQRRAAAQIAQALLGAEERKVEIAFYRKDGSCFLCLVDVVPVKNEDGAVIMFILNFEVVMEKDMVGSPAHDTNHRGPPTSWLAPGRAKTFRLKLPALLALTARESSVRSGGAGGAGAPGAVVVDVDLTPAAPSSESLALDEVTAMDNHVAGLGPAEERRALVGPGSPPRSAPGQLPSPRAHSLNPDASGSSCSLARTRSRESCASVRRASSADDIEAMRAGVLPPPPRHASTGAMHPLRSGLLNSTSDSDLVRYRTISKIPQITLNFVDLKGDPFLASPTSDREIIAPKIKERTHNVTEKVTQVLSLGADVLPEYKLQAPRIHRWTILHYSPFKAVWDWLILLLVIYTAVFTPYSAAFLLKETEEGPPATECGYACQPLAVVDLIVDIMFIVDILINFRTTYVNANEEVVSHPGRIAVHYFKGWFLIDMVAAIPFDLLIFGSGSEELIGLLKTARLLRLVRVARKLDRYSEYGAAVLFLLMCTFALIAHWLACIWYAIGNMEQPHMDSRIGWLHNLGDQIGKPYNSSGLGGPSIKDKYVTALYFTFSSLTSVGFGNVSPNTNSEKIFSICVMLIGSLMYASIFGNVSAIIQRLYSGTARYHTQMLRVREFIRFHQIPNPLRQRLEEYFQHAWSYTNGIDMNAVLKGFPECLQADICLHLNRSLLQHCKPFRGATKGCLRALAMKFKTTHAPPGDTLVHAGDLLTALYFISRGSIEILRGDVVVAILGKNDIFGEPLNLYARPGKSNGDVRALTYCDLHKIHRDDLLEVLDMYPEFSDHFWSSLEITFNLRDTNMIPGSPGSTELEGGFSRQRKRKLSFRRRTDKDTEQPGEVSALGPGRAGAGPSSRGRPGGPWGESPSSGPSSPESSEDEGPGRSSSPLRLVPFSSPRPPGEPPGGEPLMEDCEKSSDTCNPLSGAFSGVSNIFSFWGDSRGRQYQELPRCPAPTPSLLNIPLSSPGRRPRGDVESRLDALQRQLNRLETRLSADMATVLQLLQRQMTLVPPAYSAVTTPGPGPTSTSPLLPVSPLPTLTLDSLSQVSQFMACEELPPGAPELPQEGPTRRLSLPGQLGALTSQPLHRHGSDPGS

First: CCOC(=O)Cc1cnc(NC(=O)CSc2nc(N)cc(N)n2)s1
Second: CCc1ccc2nc(NC(=O)CSCc3c(C)noc3C)sc2c1
The “hERG current change (%, negative = inhibition) at 10uM” value of the first is higher: -2.73% for the first, -14% for the second.

Compared with `NC(=O)CN1C(=O)C(=O)N(Cc2ccc(Cl)cc2)C1=O`, `Cc1ccc(-n2nnc3c(=O)n(CC(N)=O)cnc32)cc1` is lower in “hERG current change (%, negative = inhibition) at 10uM” value: 12.6% for the first, 3.72% for the second.

Compared with `COc1ccc(C2Nc3ccccc3C(=O)N2Cc2ccccc2)cc1COc1ccccn1` (centres unmarked), `COc1cccc(CN2C(=O)C(C)N(C(=O)c3ccccc3)c3ccccc32)c1` (centres unmarked) is higher in “hERG current change (%, negative = inhibition) at 10uM” value: -49.4% for the first, -5.44% for the second.

Compared with `Cc1nc2ncnn2c(N2CCN(C(c3ccccc3)c3ccccc3)CC2)c1C`, `Cc1ccc(-c2csc3ncnc(N4CCN(C(=O)c5ccco5)CC4)c23)cc1` is lower in “hERG current change (%, negative = inhibition) at 10uM” value: -47.7% for the first, -89.9% for the second.

First: CCOc1ccc(C(c2c(C)[nH][nH]c2=O)c2c(C)[nH][nH]c2=O)cc1OC
Second: COc1ccc(C(=O)Nc2cccc3c2CCCC3)cc1OC
The “hERG current change (%, negative = inhibition) at 10uM” value of the first is lower: 2.49% for the first, 4.99% for the second.

Compared with `Cc1[nH]nc2nc(SCC(=O)NCCC3=CCCCC3)n(-c3ccc(Br)cc3)c(=N)c12`, `CCc1c(O)nc(SCC(=O)N2CCOCC2)n(-c2ccccc2)c1=O` is higher in “hERG current change (%, negative = inhibition) at 10uM” value: 6.42% for the first, 26.3% for the second.

Going from `CSc1nnc([C@@H](N)Cc2c[nH]c3ccccc23)o1.Cl` to `Nc1cc(=O)[nH]c(SC/C=C/c2ccccc2)n1`, the “hERG current change (%, negative = inhibition) at 10uM” value falls from 30.1% to -6.72%.

Compared with `CC(C)(C)NC(=O)COC(=O)c1nsc(Cl)c1Cl`, `COc1ccccc1OCCNC(=O)CNC(=O)c1ccc(C(C)(C)C)cc1` is lower in “hERG current change (%, negative = inhibition) at 10uM” value: 13.6% for the first, -18.8% for the second.

First: CCc1ccc(NC(=O)NNC(=O)CCc2ccccc2)cc1
Second: CCCc1ccc(C(=O)NNc2cc(Cl)ccc2Cl)cc1
The “hERG current change (%, negative = inhibition) at 10uM” value of the first is higher: 7.67% for the first, 4.07% for the second.

Going from `COc1ccc(C(=O)c2sc3nc(-c4ccc(OC)cc4)ccc3c2N)cc1` to `COc1ccc(N2CCN(C(=O)c3ccc4c(c3)NC(=O)C(CSCc3ccc(C)cc3)N4)CC2)cc1` (centres unmarked), the “hERG current change (%, negative = inhibition) at 10uM” value falls from 24.2% to 20.2%.

First: O=C(CCc1nnc2ccc(N3CCCCC3)nn12)NCC1CCN(Cc2ccc(F)cc2)CC1
Second: CCOc1ccc(C(=O)Nc2c3c(nn2-c2ccc(F)cc2)CS(=O)C3)cc1 (centres unmarked)
The “hERG current change (%, negative = inhibition) at 10uM” value of the first is lower: -24.1% for the first, -1.14% for the second.

Compared with `Cc1ccc(C(=O)OCC(=O)N2CCC(c3ccccc3)=N2)c(C)c1`, `CC1(c2ccccc2)NC(=O)N(CC(=O)N2CCN(S(=O)(=O)c3ccccc3[N+](=O)[O-])CC2)C1=O` (centres unmarked) is higher in “hERG current change (%, negative = inhibition) at 10uM” value: -1.4% for the first, 10.7% for the second.

Compared with `Cc1ccccc1-n1c(C)cc(/C=C(\C#N)C(=O)NCC2CCCO2)c1C` (centres unmarked), `Cc1cc(C)n(-c2nc3ccccc3nc2N2CCOCC2)n1` is higher in “hERG current change (%, negative = inhibition) at 10uM” value: -7.78% for the first, 7.3% for the second.

First: CCN(CC)S(=O)(=O)c1cc(-c2nnc(-c3ccc(Br)cc3)o2)ccc1Br
Second: COCCNC(=O)c1cc2cc(Br)cc(Br)c2oc1=O
The “hERG current change (%, negative = inhibition) at 10uM” value of the first is lower: 12.7% for the first, 40.3% for the second.

First: CC(=O)c1ccc(-n2ccnc2)cc1
Second: Cc1nn(-c2ccc(C(=O)Nc3nnc(C4CC4)s3)cc2)c(C)c1Cl
The “hERG current change (%, negative = inhibition) at 10uM” value of the first is higher: 10.6% for the first, 0.502% for the second.

Compared with `N#CCCn1cc(/C=N/O)c(-c2ccccc2)n1`, `O=C(O)CSCC(=O)N(c1ccccc1)c1ccccc1` is higher in “hERG current change (%, negative = inhibition) at 10uM” value: -2.58% for the first, 18.4% for the second.

Compared with `NC(=S)NNC(=O)[C@@H]1CCCC[C@@H]1C(=O)O`, `CC1CCCCC1NC(=O)c1c(O)nc2ccccn2c1=O` (centres unmarked) is lower in “hERG current change (%, negative = inhibition) at 10uM” value: 39.9% for the first, -7.2% for the second.

Going from `CCOC(=O)CCCCC(=O)c1[nH]c(=O)[nH]c1Cn1cnc2ccccc21` to `COC(=O)CC1(c2ccc(OC)cc2)C(=O)c2ccccc2C1=O`, the “hERG current change (%, negative = inhibition) at 10uM” value falls from 9.23% to -8.58%.

First: Cc1ccnc(Nc2nc(-c3ccc(F)cc3)cs2)c1
Second: COc1ccc(-c2nnn(CCC(=O)O)n2)cc1
The “hERG current change (%, negative = inhibition) at 10uM” value of the first is higher: 16.3% for the first, 3.09% for the second.

Compared with `Nc1nc(CSc2nnnn2-c2ccc(F)c(Cl)c2)nc(N2CCOCC2)n1`, `Cc1onc(-c2c(Cl)cccc2Cl)c1C(=O)NC(=S)Nc1sc2c(c1C(N)=O)CCC(C)C2` (centres unmarked) is higher in “hERG current change (%, negative = inhibition) at 10uM” value: -20.5% for the first, 6.51% for the second.

Compared with `NC(=O)c1cc(S(=O)(=O)Nc2ccccc2)cs1`, `Cc1nc2nc(C)c(NS(=O)(=O)c3cccs3)c(=O)n2[nH]1` is higher in “hERG current change (%, negative = inhibition) at 10uM” value: 1.39% for the first, 17.3% for the second.

Compared with `O=C(COc1ccc(Br)cc1)N(Cc1cccs1)C1CCS(=O)(=O)C1` (centres unmarked), `COc1c(Cl)cc(Br)c(OC)c1C(=O)NC(=O)Nc1nc(C)cc(C)n1` is higher in “hERG current change (%, negative = inhibition) at 10uM” value: -51.7% for the first, 12.7% for the second.

From publication PMC4336329 (PLoS ONE, 2015)
